# Data taken from PubChem BioAssay AID1346428 (National Center for Advancing Translational Sciences (NCATS), 2018).
# In all, about 48,000 compounds went through this assay and about 1,200 (2.5%) were called active. Another 2% or so got no clear call; they are omitted.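 Rule for the calls: active = activation of at least 60% and not above a set upper limit (about 1 call in 100 departs from these limits); inconclusive = activation of 40% to 60%, or above that upper limit; inactive = activation under 40%.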 Some of the results follow.
# Biological target: Probable G-protein coupled receptor 32 (Homo sapiens) (UniProt O75388)
# Assay: qHTS for Agonists of Human Resolvin D1 Receptor DRV1
# Settings: CHO-K1 GPR32 beta-arrestin PathHunter luminescence, 90 min; at 76.9 µM; stronger effect = higher value; zero percent set by DMSO-only wells
# Method in brief: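 PathHunter enzyme-fragment complementation, CHO-K1 GPR32 stable line; 2,500 cells/well, overnight attach; cpd 90 min 37 °C 5% CO2; detection reagent 1 h RT; chemiluminescence. DMSO = EC0.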
# UniProt O75388, sequence (O75388 whole entry, looked up): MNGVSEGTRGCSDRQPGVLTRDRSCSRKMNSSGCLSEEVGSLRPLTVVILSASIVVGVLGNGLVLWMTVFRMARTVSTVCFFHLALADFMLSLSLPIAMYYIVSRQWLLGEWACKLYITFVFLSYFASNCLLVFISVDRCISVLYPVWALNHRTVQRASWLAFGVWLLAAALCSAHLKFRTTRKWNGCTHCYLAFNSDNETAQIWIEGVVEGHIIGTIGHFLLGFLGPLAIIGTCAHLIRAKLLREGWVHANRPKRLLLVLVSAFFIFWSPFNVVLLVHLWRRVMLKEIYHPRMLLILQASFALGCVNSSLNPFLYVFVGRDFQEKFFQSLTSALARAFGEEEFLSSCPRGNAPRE
row,SMILES,activation
1,Cc1ccc(S(=O)(=O)NCc2nc3cccnc3n2Cc2ccccc2Cl)c(C)c1,inactive: -21.7%
2,CCc1ccccc1NC(=O)N1CC(C)Sc2ccccc21 (configuration not stated),inactive: -34.8%
3,COc1ccccc1NC(=O)CN1C(=O)c2ccccc2Sc2ccc(C(=O)N3CCCC3)cc21,inactive: -6.06%
4,CC(=O)c1ccc(NC(=O)c2nc(-c3ccccc3)n(-c3ccccc3)n2)cc1,inactive: -10.3%
5,O=C(Nc1ccc(Br)cc1F)N1CC=C(c2c[nH]c3ccccc23)CC1,inactive: -20.5%
6,CC(=O)c1ccccc1OCC(O)Cn1c(CO)nc2ccccc21 (configuration not stated),inactive: 27.4%
7,CCOc1ccccc1NC(=O)C1CCCN1S(=O)(=O)c1ccc2c(c1)C(C)(C)C(=O)N2C (configuration not stated),inactive: -16.3%
8,COc1cc(C(=O)Nc2ccc3c(c2)N(C2CCCC2)C(=O)c2ccccc2S3)cc(OC)c1OC,inactive: -1.76%
9,Cc1ccc(C)c(NC(=O)Cn2cc(C(=O)c3cccs3)c3ccccc32)c1,inactive: -12.4%
10,CC(C)Oc1ccc(C(=O)NCC(c2ccc(N(C)C)cc2)N2CCCC2)cc1 (configuration not stated),inactive: -5.64%
11,CCOc1ccccc1NC(=O)CCNS(=O)(=O)c1cccc2nonc12,inactive: -5.1%
12,CCOC(=O)c1c(NC(=O)c2cc3nc(-c4ccc(Br)cc4)cc(C(F)(F)F)n3n2)sc(C(C)=O)c1C,inactive: 3.87%
13,CCC(C(=O)NCc1ccc(OC)c(OC)c1)n1nc(C)c2c(C)n(-c3ccc(C)cc3)nc2c1=O (configuration not stated),inactive: -8.19%
14,Cc1ccc(C(=O)COC(=O)c2cccc(NC(=O)c3ccc(Cl)cc3Cl)c2)cc1,inactive: -2.55%
15,COc1ccc(NC(=O)N2CCOc3ccc(Cl)cc32)cc1,inactive: -27.4%
16,Nc1c(C(=O)Nc2ccccc2F)sc2nc3c(cc12)CCCCCC3,active: 71.8%
17,Cc1ccc(NS(=O)(=O)c2cc(-c3cnc(C4CC4)o3)ccc2C)cc1Cl,inactive: -4.82%
18,Cc1cc(NC(=O)c2ccc3c(c2)OCCO3)cc(-c2nc3ccccc3o2)c1O,inactive: 23.2%
19,COc1ccc(Cc2nc3c4cnn(-c5ccccc5F)c4ncn3n2)cc1,inactive: -3.47%

row,SMILES,activation
1,COc1ccc(Cl)cc1N(C)C(=O)c1cc2c(=O)oc3ccc(C)cc3c2s1,inactive: 29.1%
2,CCOC(=O)c1ccccc1NC(=O)CN1CCCN(Cc2cccc(Cl)c2)S1(=O)=O,inactive: -23.4%
3,CCc1ccc(NC(=O)CCNS(=O)(=O)c2ccc3c(c2)oc(=O)n3C)cc1,inactive: 9.52%
4,CCCCNC(=O)c1cc(-c2ccc(OC)cc2)nc2n[nH]c(-c3cccc([N+](=O)[O-])c3)c12,inactive: -12.7%
5,CCc1ccccc1NC(=O)CN1CCCN(Cc2cc(C)ccc2C)S1(=O)=O,inactive: -9.46%
6,Cc1ccc(CNC(=O)c2ccc3c(c2)nc2n3CCOC2)cc1,inactive: -9.14%
7,Cc1ccc(-n2nc(C)c3c(C(=O)NCCc4ccccc4)cc(C)nc32)cc1,inactive: -13.2%
8,CCN(CC)c1ccc(C(=O)NCc2ccc3c(c2)CCN3C(=O)c2ccc(F)cc2)cc1,inactive: -34.3%
9,CCN(CC)CCCNC(=O)c1nn(C)c2c1CSc1ccccc1-2,inactive: -4.2%
10,COc1ccccc1-c1cc(C(=O)Nc2cc(OC)c(OC)c(OC)c2)no1,inactive: -3.4%
11,COc1ccc(C(C)=O)cc1CSc1nc(NCCc2ccccc2)c2ccccc2n1,inactive: -7.01%
12,Cc1cccc(N(CC(=O)NCCSCc2cccc(Cl)c2)S(=O)(=O)c2ccccc2)c1C,inactive: 19.8%
13,CCCS(=O)(=O)c1c(S(=O)(=O)CCC)c2cc(CC)ccn2c1C(=O)c1ccc(Cl)cc1,inactive: -11.7%
14,Cc1ccc(NC(=O)C2CCN(S(=O)(=O)c3c(C)noc3/C=C/c3cccs3)CC2)cc1F,inactive: -28.7%
15,COc1ccc(NC(=O)CCc2nc3c(C)nn(-c4ccc(C)cc4)c3n(C)c2=O)cc1,inactive: 0.164%
16,O[Si](CCCN1CCCCC1)(c1ccc(F)cc1)C1CCCCC1 (configuration not stated),inactive: 8.87%
17,COc1ccc(C2NC(=O)N(C)C3=C2C(=O)N(c2cccc(C(=O)O)c2)C3)cc1 (configuration not stated),inactive: 2.61%
18,COc1ccc(Cl)cc1CNCCSc1nnnn1-c1ccccc1,inactive: -17.7%
